This is one part of the list.

For this assay, the system named is S. aureus RN4220. The assay can be described thus: growth inhibition call (relative growth <= 0.2). The conditions noted are these: 50 µM.
For `Cc1noc(C)c1NC(=O)Nc1ccc2c(c1)C(=O)N([C@@H](C)CO)C[C@@H](C)[C@H](CN(C)C(=O)NC1CCCCC1)OCCCC[C@H](C)O2`, the growth inhibition call was “inactive”.
For `C[C@@H]1CCCCO[C@H](CN(C)S(=O)(=O)c2ccc(F)cc2)[C@@H](C)CN([C@H](C)CO)C(=O)c2cc(NC(=O)Cc3ccccc3)ccc2O1`, the growth inhibition call is “inactive”.
In the case of `C[C@@H]1CN([C@H](C)CO)C(=O)c2cccc(NC(=O)CCCCCC(=O)Nc3ccccc3N)c2O[C@H]1CN(C)C(=O)Nc1ccc(F)cc1`, the growth inhibition call is “inactive”.
The same measure for `Nc1ncnc2c1ncn2C1OC(COP(=O)(O)O)C(O)C1O` (stereo not given): “inactive”; for `C[C@@H](CO)N1CC[C@H](CN(C)Cc2ccc(Oc3ccccc3)cc2)Oc2c(NC(=O)c3ccncc3)cccc2C1=O`: “inactive”.
For the compound `O=C(C[C@@H]1CC[C@H]2[C@@H](COC[C@H](O)CN2Cc2cc(F)ccc2F)O1)N[C@H]1CCN(Cc2ccccc2)C1`, the growth inhibition call is “inactive”.
Consider `COc1ccc([C@@H]([C@H](Cc2ccccc2)OC(C)=O)N2C[C@@H](CC(=O)N(C)C)[C@H]3[C@@H]([C@@H]2Cc2ccccc2)N(C)O[C@@H]3c2ccccc2)cc1`, for which the growth inhibition call was “inactive”.
As to `C[C@@H]1CN([C@@H](C)CO)C(=O)Cc2cc(NS(=O)(=O)c3ccc(F)cc3)ccc2O[C@@H]1CN(C)Cc1ccc(-c2ccccc2)cc1`, the growth inhibition call is “inactive”.
Turning to `CN(C)N(C)C(=O)[C@@]1(Cc2ccccc2)CCCN(C(=O)[C@@H](Cc2c[nH]c3ccccc23)NC(=O)C(C)(C)N)C1`, the growth inhibition call is “inactive”.
To `CC1CN(c2c(F)c(F)c3c(=O)c(C(=O)O)cn(C4CC4)c3c2F)CC(C)N1` (stereo not given) belongs “active”; to `COc1ccc(CN2C[C@@H](C)[C@H](OC)CN(C)C(=O)c3cc(NC(=O)c4nc5ccccc5s4)ccc3OC[C@H]2C)cc1`, “inactive”.
Take `C[C@H]1CCCCO[C@H](CN(C)C(=O)Nc2ccc(C(F)(F)F)cc2)[C@@H](C)CN([C@@H](C)CO)C(=O)c2cc(NC(=O)c3ccncc3)ccc2O1`: the growth inhibition call was “inactive”.
The same measure for `COc1ccccc1S(=O)(=O)N[C@H]1CC[C@H](CCNC(=O)C2CC2)O[C@H]1CO`: “inactive”; for `COc1ccc(/C=C/CN(C/C=C/c2ccc(OC)cc2)CCCNS(=O)(=O)c2cccc3cnccc23)cc1`: “inactive”.
Consider `C[C@@H]1CN([C@H](C)CO)C(=O)c2cccc(NC(=O)c3ccc(-c4nccs4)cc3)c2O[C@H]1CN(C)Cc1ccc2c(c1)OCO2`, for which the growth inhibition call was “inactive”.
For `C[C@@H]1CCCCO[C@@H](CN(C)S(=O)(=O)c2cccs2)[C@@H](C)CN([C@@H](C)CO)C(=O)c2cc(NS(C)(=O)=O)ccc2O1`, the growth inhibition call is “inactive”.
As for `Cc1ccc(S(=O)(=O)N(C)C[C@@H]2OCCCC[C@@H](C)Oc3ccc(NS(=O)(=O)c4ccc(Cl)cc4)cc3C(=O)N([C@H](C)CO)C[C@@H]2C)cc1`, the growth inhibition call is “inactive”.
For `C[C@@H]1CN([C@H](C)CO)C(=O)CCCn2nncc2CO[C@@H]1CN(C)S(=O)(=O)c1ccccc1C#N`, the growth inhibition call was “inactive”.
To `CN1C(=O)c2cc(NC(=O)c3ccc(F)c(F)c3)ccc2OC[C@@H]2O[C@H](CC(=O)N3CCOCC3)CC[C@@H]21` belongs “inactive”.
`C[C@@H]1CN([C@H](C)CO)C(=O)c2cc(NC(=O)Nc3cccc4ccccc34)ccc2O[C@@H](C)CCCCO[C@H]1CN(C)Cc1ccc(C(F)(F)F)cc1`: the growth inhibition call is “inactive”.
To `C[C@H](CO)N1C[C@H](C)[C@@H](CN(C)Cc2ccccc2)Oc2c(NC(=O)c3cnccn3)cccc2C1=O` belongs “inactive”.
In the case of `COc1ccc(NC(=O)Nc2cccc3c2O[C@@H](CN(C)S(=O)(=O)c2cn(C)cn2)[C@@H](C)CN([C@H](C)CO)C3=O)cc1`, the growth inhibition call is “inactive”.
With `CN(C)CCN1C[C@H]2OCCN(Cc3cnn(C)c3)[C@H]2C1`, the growth inhibition call was “inactive”.
The same measure for `Cc1noc(C)c1NC(=O)N(C)C[C@H]1OCCCC[C@@H](C)Oc2ccc(NC(=O)c3ccccc3)cc2C(=O)N([C@@H](C)CO)C[C@H]1C`: “inactive”; for `COc1ccc2c3c([nH]c2c1)[C@@H](CO)N(C[C@]13CCN(CC1)C(=O)Nc1c(noc1C)C)C(=O)Nc1ccc(cc1)F`: “inactive”.
Regarding `C[C@H]1CCCCO[C@@H](CN(C)Cc2ccc3c(c2)OCO3)[C@@H](C)CN([C@@H](C)CO)C(=O)c2cc(NS(=O)(=O)c3cccs3)ccc2O1`, the growth inhibition call was “inactive”.
The same measure for `CS(=O)(=O)OCCCCOS(C)(=O)=O`: “inactive”; for `C[C@@H]1CCCCO[C@H](CN(C)C(=O)CCCN(C)C)[C@H](C)CN([C@H](C)CO)C(=O)c2cc(N(C)C)ccc2O1`: “inactive”; for `CC(C)NC(=O)Nc1ccc2c(c1)C(=O)N([C@@H](C)CO)C[C@H](C)[C@@H](CN(C)Cc1ccc(-c3ccccc3)cc1)O2`: “inactive”.
The same measure for `O=C(C[C@H]1CC[C@H]2[C@@H](COC[C@@H](O)CN2C(=O)c2ccc(F)cc2)O1)NCCCN1CCOCC1`: “inactive”.
Turning to `Cc1noc(C)c1S(=O)(=O)N(C)C[C@@H]1Oc2ccc(NS(=O)(=O)c3ccc(F)cc3)cc2CC(=O)N([C@@H](C)CO)C[C@@H]1C`, the growth inhibition call was “inactive”.
Consider `Cc1cnc(N)c(C)n1`, for which the growth inhibition call is “inactive”.
As for `COCC#Cc1cnc2c(c1)C(=O)N([C@H](C)CO)C[C@@H](C)[C@H](CN(C)S(=O)(=O)c1cn(C)cn1)O2`, the growth inhibition call was “inactive”.
To `O=C(C[C@@H]1CC[C@H]2[C@@H](COC[C@@H](O)CN2C(=O)Nc2cccc(F)c2)O1)NCc1ccccc1Cl` belongs “inactive”; to `CCOc1ccc(N2C(=O)/C(=C/C=C/c3ccccc3OC)S(=O)(=O)[C@@H]2c2cccc([N+](=O)[O-])c2)cc1`, “inactive”; to `C[C@@H]1CN([C@@H](C)CO)C(=O)CCCn2cc(nn2)CO[C@@H]1CN(C)C(=O)Nc1ccc(N2CCN(C)CC2)cc1`, “inactive”.
In the case of `C[C@@H]1CN([C@H](C)CO)C(=O)c2cccc(NC(=O)c3ccc(-c4nccs4)cc3)c2O[C@H]1CN(C)C(=O)Nc1cccc2ccccc12`, the growth inhibition call was “inactive”.
On to `C[C@H]1CCCCO[C@H](CN(C)C(=O)Cc2ccccc2)[C@@H](C)CN([C@@H](C)CO)C(=O)c2cc(NC(=O)C3CCCCC3)ccc2O1`, for which the growth inhibition call is “inactive”.
As for `COc1ccc(S(=O)(=O)Nc2ccc3c(c2)C(=O)N([C@@H](C)CO)C[C@H](C)[C@@H](CN(C)Cc2ccccc2)OCCCC[C@@H](C)O3)cc1`, the growth inhibition call was “inactive”.
To `CNC[C@@H]1OCCCC[C@@H](C)Oc2ccc(NC(=O)Nc3ccc(C(F)(F)F)cc3)cc2C(=O)N([C@H](C)CO)C[C@@H]1C` belongs “inactive”.
